This is one part of the list.
The molecules below were run on T1, C. trachomatis L2/434/Bu expressing GFP (CTL2-GFP). Settings: total inclusion area; 28.5 h, 10 µM; inhibitor.
T1 construct: L2/434/Bu GFP intracellular growth in HeLa cells
Set-up: species or system HeLa; C. trachomatis total inclusion area by high-content imaging, normalised to DMSO
Summary of the method: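 High-content imaging followed the bulk GFP/resorufin measurement: fixed, Hoechst-stained cells were scored for GFP inclusions and host nuclei per well. Total inclusion area and count served as growth proxies, nuclei number as the viability proxy. MIC calculation matched the bulk assay.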
In the case of `O=C(NC(=O)C1CCNCC1)Nc1ccc(F)cc1F` [CBK034793], the “% of control remaining” value is reported as 78.39.
With `COc1ccc(CN2C(=O)CC3(C2=O)C(=O)N(Cc2ccccc2)c2ccc(F)cc23)cc1OC` (stereo not drawn) [CBK075174] the “% of control remaining” value was 97.4084.
`COC(=O)Cc1c(O)nn(C)c1Cc1cccc(C(F)(F)F)c1` [CBK006608] was tested, and the “% of control remaining” value was 88.8958.
For `COc1cc(OC)cc(C(=O)N2CCC3(CC2)CC(=O)c2ccc(OCCN(C)C)cc2O3)c1` [CBK169008T], the “% of control remaining” value was 47.7157.
For `O=C(Nc1ccc(OCc2ccccc2)cc1)OCC1CN(Cc2ccccc2)CCO1` (stereo not drawn) [CBK074792], the “% of control remaining” value was 88.5277.
`COc1ccccc1C1CCCN1Cc1c(C)nc2ccccn12` (stereo not drawn) [CBK281995] was tested, and the “% of control remaining” value was 96.6753.
In the case of `COc1cccc2c3c([nH]c12)C1(CCCN(C/C=C\c2ccccc2)C1)NCC3` (stereo not drawn) [CBK040138], the “% of control remaining” value is reported as 57.6548.
In the case of `CCc1cccc2c(C=C3C(=O)N(CC(=O)O)C(=O)c4ccccc43)c[nH]c12` [CBK295153], the “% of control remaining” value is reported as 100.565.
For `CC(C)(C)C(=O)N1CCC(c2nnc3n2CCCCC3)CC1` [CBK285311], the “% of control remaining” value was 69.5635.
In the case of `CN(C)CCN(Cc1cc2cc3c(cc2[nH]c1=O)OCO3)C(=S)Nc1ccc(F)cc1` [CBK135186], the “% of control remaining” value is reported as 86.2668.
With `O=C(Nc1cccc(Cl)c1)Nc1ccccc1NC(=O)Nc1cccc(Cl)c1` [CBK267624] the “% of control remaining” value was 96.9216.
For `C/C(CCS(=O)(=O)c1ccc(Br)cc1)=N\NC(N)=S` [CBK261370], the “% of control remaining” value was 70.5781.
With `CC(C)C[C@H]1NC(=O)C2(C/C=C/C[C@@H]3COCC[C@@H]3NC1=O)CCN(C(=O)[C@@H](N)Cc1c[nH]c3ccccc13)CC2` [CBK292200] the “% of control remaining” value was 99.6175.
For `CCOC(=O)N1CCN(CCCCc2ccc(F)cc2)CC1` [CBK025002C], the “% of control remaining” value was 66.5987.
`Cc1ccc(OCc2nc(C#N)c(NCCCN3CCOCC3)o2)cc1` [CBK266423] was tested, and the “% of control remaining” value was 100.525.
In the case of `O=C(Nc1cc(Cl)ccc1Cl)c1ncn[nH]1` [CBK028834], the “% of control remaining” value is reported as 49.6811.
With `FC(F)(F)c1cc(-c2cn3ccnc3c(NCCc3cccnc3)n2)cc(C(F)(F)F)c1` [CBK066146] the “% of control remaining” value was 100.153.
In the case of `O=C(O)Cc1ccc(NC(=O)CN2C(=O)c3ccccc3C2=O)cc1` [CBK268562], the “% of control remaining” value is reported as 128.952.
For `CCCCNC(=O)NC(=O)C1CCN(CCCOc2ccccc2)CC1` [CBK035198], the “% of control remaining” value was 60.7186.
For `Cc1ccc(-n2c(SCC(=O)Nc3ccc(C)c([N+](=O)[O-])c3)nnc2-c2ccccc2O)c(C)c1` [CBK268769], the “% of control remaining” value was 52.5225.
`O=C(NC1Cc2ccccc2C1)c1cncnc1` [CBK200262] was tested, and the “% of control remaining” value was 92.5286.

— article PMC12040169 (PLOS Biology, 2025)
